Assay results taken from PubChem BioAssay (NCATS).
Where “and” joins values, the source holds several entries; their conditions need not be identical. Equal values may be shown once. Inconclusive means that the source gave no clear call. Such entries were picked first, then a sample of the others. For some assays here: Where the call is inconclusive, the potency comes from a doubtful curve fit. For some assays here: A note “side channel” means that the fit belongs to a control or component signal, not to the main read-out. Calls of active or inactive are those of the source. Unless noted, calls follow the shape of the dose curve; as a rule, active = well fitted curve in the direction sought with a large enough effect; inconclusive = small, poorly fitted or top-dose-only effect, or another doubt; inactive = no such curve, though single readings can be large; an effect the other way counts as inactive or inconclusive.

Key:
[1] = Cell Viability - Jurkat (AID 426;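 active = dose-dependent loss of cell ATP signal giving a full or clear fitted curve, ranked by lower potency value; inconclusive = weak partial curve or response only at the top dose; inactive = no loss of viability signal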; also: potency is read from the fitted curve at half-maximal effect); details: qHTS
Summary of the method: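 Jurkat (clone E6-1, human T-cell leukemia) cells, 5000/well in complete medium, were exposed to compound for 40 hr at 37 °C. Viability was read as intracellular ATP by CellTiter-Glo luminescence; AC50 came from Hill fits of concentration-response data.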

[2] = Cell Viability - HepG2 (AID 433; calls by dose curve;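 also: potency is read from the fitted curve at half-maximal effect; potency for ATP loss meaning cytotoxicity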); details: qHTS
Summary of the method: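 Read-out is luciferase-based quantitation of cellular ATP as a measure of viable HepG2 cells after 40 h treatment at 37 °C. Signal decrease is scaled between DMSO-only and 100 uM tamoxifen controls, with AC50 fitted by the Hill equation.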

[3] = biological target: Mitogen-activated protein kinase 10 (Mus musculus) (UniProt Q61831); test: JNK3 AlphaScreen Assay (AID 530; active = well fitted curve in either direction with a large enough effect, not every such curve was filed as active; inconclusive = small, poorly fitted or top-dose-only effect, or another doubt;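 also: kinase came from lysate of stimulated human HepG2 cells; signal reports phosphorylation of biotinylated GST-cJun 1-79 at Ser73 with 10 µM ATP; potency is read from the fitted curve at half-maximal effect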); details: JNK3 lysate, c-Jun phosphorylation; activity change, negative = inhibition: at 57.1 µM (top of the series)
Summary of the method: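 JNK3 came from HepG2 lysates pre-activated with IL-1beta and TNF-alpha and phosphorylated biotinylated GST-cJun (1-79) at 10 uM ATP, pH 7.6, room temperature. Compounds were titrated. AlphaScreen signal used anti-phospho-cJun (Ser73) antibody.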

[4] = Cell Viability - N2a (AID 540); details: N2a mouse neuroblastoma cell viability; activity change, negative = cytotoxicity: at 92.2 µM (top of the series);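 also: plate controls were DMSO alone for no effect and tamoxifen control for full effect; nearly all actives have a fitted effect of over 45% in size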
Summary of the method: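 Mouse neuroblastoma N2a cells (1500/well) were preincubated 5 hr at 37 °C, then exposed to compounds for 40 hr at 37 °C in complete medium. Viability was read as intracellular ATP by CellTiter-Glo luminescence; AC50 from Hill fits.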

[5] = Cellular Toxicity (caspase-3) Jurkat (AID 655); details: Jurkat caspase-3 activation, luminescence; caspase-3 activation: at 92.2 µM (top of the series), DMSO = 0%, tamoxifen = 100%;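 also: cells exposed to compound for 16 h at 37 °C before reading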
Summary of the method: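 5000 Jurkat cells/well; compound 16 hr, 37 °C; Caspase-Glo 3/7 added, 20 min RT; luminescence read. Norm: DMSO = 0%, tamoxifen 100 uM = 100%. AC50, Hill model.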

[6] = Cellular Toxicity (caspase-3) SK-N-SH (AID 661); details: SK-N-SH caspase-3 activation, qHTS, DMSO as zero, staurosporine as full; at 91.7 µM (top of the series);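 also: 0% = DMSO basal and 100% = 10 µM staurosporine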
Summary of the method: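 SK-N-SH human neuroblastoma cells (1500/well) were treated with compounds for 16 hr at 37 °C in complete medium; caspase 3/7 activity was read by Caspase-Glo luminescence. AC50 came from Hill fits of data normalized to DMSO and 10 uM staurosporine.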

[7] = Cellular Toxicity (caspase-3) H-4-II-E (AID 663); details: H-4-II-E rat hepatoma; Potency: caspase-3 activation; caspase-3 activation: at 92.2 µM (top of the series), scaled: DMSO 0%, 100 µM tamoxifen 100%;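 also: cells exposed to compound for 16 hr before readout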
Summary of the method: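 Luminescence from caspase-cleaved aminoluciferin substrate, read 20 min after reagent addition, reports caspase 3/7 activation in rat H-4-II-E cells after 16 hr compound exposure. Normalized to DMSO (basal) and 100 uM tamoxifen (100%); AC50 from Hill fits.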

[8] = Cellular Toxicity (caspase-3) Hek293 (AID 664); details: HEK293 caspase-3 activation, DMSO = 0%, 100 µM tamoxifen = 100%; at 92.2 µM (top of the series);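 also: cells exposed to compound for 16 h at 37 °C before readout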
Summary of the method: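 HEK293 cells were exposed to compounds in complete medium for 16 hr at 37 °C, then caspase-3/7 activity was read by Caspase-Glo 3/7 luminescence after 20 min at room temperature. Data normalized to DMSO and 100 uM tamoxifen; AC50 from Hill fits.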

[9] = MultiTox-Fluor Cytotoxicity Assay - LYMP1-002 - Dead Cells (AID 960); details: LYMP1-002 lymphoblastoid cells, dead-cell protease fluorescence; cytotoxicity (dead cells): at 46.1 µM (top of the series); also: potency is read from the fitted curve at half-maximal effect; nearly all actives have a fitted effect of over 60% in size
Summary of the method: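 Human lymphoblastoid cells (LYMP1-002), 2500/well in complete medium, were exposed to compounds for 16 hr at 37 C. Dead-cell protease activity was read as bis-AAF-R110 fluorescence (Ex/Em 485/520), normalized to DMSO and 15 uM tetraoctylammonium bromide; AC50 from Hill fits.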

[10] = qHTS Assay for Identification of Small Molecule Inducers of Hypoxia Response (AID 2120; active = well fitted curve in the direction sought with a large enough effect in the signal ratio, with a control signal flat, not every such curve was filed as active; inconclusive = small, poorly fitted or top-dose-only effect, or a change in a side signal; inactive = no such curve, though single readings can be large or run the other way; the % refers to the signal ratio; also: potency is read from the fitted curve at half-maximal effect); details: hypoxia response reporter cells, beta-lactamase ratio readout; activation: at 104 µM (top of the series)
Summary of the method: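 HRE-beta-lactamase reporter in CellSensor HRE-bla ME-180 cells, 2500 cells/well in Opti-MEM with 0.5% dialyzed FBS; compounds tested as titration series, 17 h at 37 degrees C. CCF4 substrate 2.5 h at room temperature; AC50 from 460/530 nm ratio.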

[11] = biological target: Estrogen receptor (Homo sapiens) (UniProt P03372); test: qHTS assay for small molecule antagonists of estrogen receptor alpha signaling (AID 588513; active = well fitted curve in the direction sought with a large enough effect in the signal ratio, with a control signal flat, not every such curve was filed as active; inconclusive = small, poorly fitted or top-dose-only effect, or effect the other way, or a change in a side signal; inactive = no such curve, though single readings can be large or run the other way; the % refers to the signal ratio; also: potency is read from the fitted curve at half-maximal effect); details: ER-alpha-UAS-bla HEK293, beta-lactamase ratio, antagonist mode; activity, negative = inhibition: at 76.9 µM (top of the series)
Sequence of UniProt P03372 (P03372 whole entry, looked up): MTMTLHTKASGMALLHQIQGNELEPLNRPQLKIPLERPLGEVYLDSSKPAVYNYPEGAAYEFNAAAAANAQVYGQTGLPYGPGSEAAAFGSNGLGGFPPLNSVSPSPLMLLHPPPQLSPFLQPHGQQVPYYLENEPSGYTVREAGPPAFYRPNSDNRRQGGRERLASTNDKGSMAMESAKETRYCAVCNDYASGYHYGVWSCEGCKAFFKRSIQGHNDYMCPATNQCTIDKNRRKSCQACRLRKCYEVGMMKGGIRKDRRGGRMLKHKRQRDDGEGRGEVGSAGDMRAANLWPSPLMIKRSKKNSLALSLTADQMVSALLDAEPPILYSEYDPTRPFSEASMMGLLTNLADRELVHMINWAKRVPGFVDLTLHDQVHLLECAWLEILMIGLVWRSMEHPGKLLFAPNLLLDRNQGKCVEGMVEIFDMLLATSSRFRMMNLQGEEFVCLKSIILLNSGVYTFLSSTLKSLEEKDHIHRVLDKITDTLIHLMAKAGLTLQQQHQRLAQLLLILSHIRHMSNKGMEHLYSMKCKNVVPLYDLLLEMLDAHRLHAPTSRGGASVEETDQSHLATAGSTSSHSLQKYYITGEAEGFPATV
Summary of the method: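 Fluorescence from CCF4 substrate after 2 h at room temperature gave reporter activity; cells had been exposed to compound and 0.5nM 17-beta-estradiol for 18 h at 37 C. Hill-equation fitting yielded IC50 and maximal response.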

[12] = biological target: Bile acid receptor (Homo sapiens) (UniProt Q96RI1); test: qHTS assay for small molecule agonists of farnesoid X receptor signaling (AID 588527; calls by dose curve;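 also: 0% = vehicle basal and 100% = reference agonist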); details: HEK293T FXR-UAS-bla, beta-lactamase ratio, 16 h; activation: stronger effect = higher value
Sequence of UniProt Q96RI1 (Q96RI1 whole entry, looked up): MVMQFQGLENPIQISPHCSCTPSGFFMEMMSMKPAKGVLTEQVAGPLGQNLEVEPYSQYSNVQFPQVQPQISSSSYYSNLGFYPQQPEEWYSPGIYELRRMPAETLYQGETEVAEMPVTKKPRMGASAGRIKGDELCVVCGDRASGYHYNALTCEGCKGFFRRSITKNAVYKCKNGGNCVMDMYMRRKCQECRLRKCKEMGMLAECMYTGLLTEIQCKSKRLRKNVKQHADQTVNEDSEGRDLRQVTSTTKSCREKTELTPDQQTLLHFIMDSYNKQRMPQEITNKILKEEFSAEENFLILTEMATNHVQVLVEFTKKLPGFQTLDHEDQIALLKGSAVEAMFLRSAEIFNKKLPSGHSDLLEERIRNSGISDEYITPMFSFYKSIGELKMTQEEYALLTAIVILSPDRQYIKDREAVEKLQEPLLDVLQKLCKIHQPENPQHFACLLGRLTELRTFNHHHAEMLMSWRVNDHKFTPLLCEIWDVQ
Summary of the method: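 FXR-UAS-bla HEK293T, 10% dialyzed FBS; cpds up to 92 uM titration, 16 h 37 C; CCF4 dye 2 h RT; fluorescence. Normalized to chenodeoxycholic acid 100 uM (100%) and DMSO (0%); Hill fit gives EC50, efficacy.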

[13] = biological target: Glucocorticoid receptor (Homo sapiens) (UniProt P04150); test: qHTS assay for small molecule agonists of glucocorticoid receptor signaling (AID 588532; active = well fitted curve in the direction sought with a large enough effect in the signal ratio, with a control signal flat; inconclusive = small, poorly fitted or top-dose-only effect, or a change in a side signal; inactive = no such curve, though single readings can be large or run the other way; the % refers to the signal ratio; also: potency is read from the fitted curve at half-maximal effect); details: HeLa MMTV-bla, beta-lactamase ratio, agonist, 18 h; activation: stronger effect = higher value, percent of dexamethasone control, DMSO zero
Summary of the method: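 MMTV-bla HeLa, beta-lactamase reporter; medium with 1% charcoal/dextran-stripped FBS; cpds up to 92 uM, 18 h, 37 C; CCF4 readout 460/530 nm; Hill fit → EC50, efficacy vs 0.1 uM dexamethasone = 100%.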

[14] = biological target: Glucocorticoid receptor (Homo sapiens) (UniProt P04150); test: qHTS assay for small molecule antagonists of glucocorticoid receptor signaling (AID 588533; active = well fitted inhibition curve with a large enough effect in the signal ratio, with a control signal flat, not every such curve was filed as active; inconclusive = small, poorly fitted or top-dose-only effect, or effect the other way, or a change in a side signal; the % refers to the signal ratio;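 also: cells stimulated with 2 nM dexamethasone as agonist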; also: potency is read from the fitted curve at half-maximal effect; as to activity change, negative = inhibition: % is scaled to controls: 0 for no effect and ±100 for the full control effect); details: HeLa MMTV-bla, GRE beta-lactamase ratio, antagonist mode, 18 h; activity change, negative = inhibition: at 76.8 µM (top of the series)
Tags tell the direction and shape of the fitted curve or compound fluorescence and quenching.

In the case of OC(c1ccc(Cl)cc1)(c1ccc(Cl)cc1)C(Cl)(Cl)Cl, the Potency [1] is reported as inconclusive: 101 µM [single point], the Potency [2] is reported as inconclusive: 97.5 µM [single point] and the Potency [3] is reported as inconclusive: 31.6 µM [activator, partial curve]. For the same compound, the activity change, negative = cytotoxicity [4] was active: -118%, the caspase-3 activation [5] was inconclusive: 30.5% and the caspase-3 activation [6] was inconclusive: 38.1%. The caspase-3 activation [7] was inconclusive: 87.3%, the caspase-3 activation [8] was inconclusive: 83% and the Potency [9] was inconclusive: 12.6 µM [cytotoxic, full curve]. For the same compound, the Potency [10] was inconclusive: 31.6 µM [side channel, falling, full curve], the Potency [11] was inconclusive: 50.1 µM [falling, single point] and the activation [12] was inactive: 3.21% and inactive: 2.17%. The Potency [13] was inconclusive: 14.1 µM [side channel, rising, partial curve, poor fit] and the Potency [14] was “inactive and inconclusive: 50.1 µM [inhibitor, single point]”.
